Source: the RNAGym collection of RNA variant scans (doi:10.7554/elife.90254)
The source gives no read counts; variants with many changes may rest on few reads.

B1: OR4K15 (parent)
chain: GUUAACGGUCAUAGGCCAUGGAAACUAGGAGCACCAUUUCGCUGCCAGUGAAGAAAUGAACAAAGAAAAUCUGGGCCAGGCAGGCAUCAAAAGAAAUAGUCUUGCGCUCAACCAGAAAGUCUGUAAUCAUUUUAAGGGUA

Variants of: B1
Experiment: self-cleavage, relative activity (ratio to wild type); higher = more cleavage; in vitro, sequencing; the parent is a self-cleaving ribozyme

Variant | self-cleavage
GUUAACGGUCACAGGCCAUGGAAACUAGGGGCACCAUUUCGCUGCCAGUGAAGAAAUGAGCGAAGAAAAUCUGGGCCAGGCAGGCAUCAAAAGAAAUAGUCUUGCGCUCAACCAGAAAGUCUGUAAUCAUUUUAAGGGUA | 0.27
GUUAACGGUCACAGGCCAUGGAAACUAGGAGCACCAUUUCGCUGCCAGUGAAGAAAUGAACAAAGAAAAUCUGGGCCAGGCAGGCAUCAAAAGGAAUAGUCUUGCGCUCAACCAGAAAGUCAGUAAUCAUUUUAAGGGUA | 1.39
GUUAACGGUCACAGGCCAUGGAAACUAGGGGCACCAUAUCGCUGCCAGUGAAGAAAUGAACAAAGAAAGUCUGGGCCGGGCAGGCAUCAAAAGAAAUAGUCUUGCGCUCAACCAGAAAGUCUGUAAUCAUUUUAAGGGUA | 0.49
GUUAACGGUCACAGGCCAUGGAAACUAGGAGCACCAUUUCGCUGCCAGUGGAGAAAUGAACAAAGAAAAUCUGGGCCAGGCAGGCAUCAAAAGAAAUAGUCCUGCGCUCAACCAGAAAGUCUGUAAUCAUUUUAAGGGUA | 1.05
GUUAACGGUCACAGGCCAUGGAAACUAGGAGCACCAUUUCGCUGCCAGUGAAGAAAUGAACAAAGAGAAUCCGGGCCAGGCAGGCACCAAAAGAAAUAGUCUUGCGCUCAACCAGAAAGUCUGUAAUCAUUUUAAGGGUA | 0.12
GUUAACGGUCACAGGCCAUGGAAACUAGGAGCACCAUUUCGCUGCCAGUGAAGAAAUGAACAAAGAAAGUCUGGGCCAGGCAGGCAUCAAAAGAAAUAGUCUUGCGCUCGACCAGAAAGUCUGUAAACAUUUUAAGGGUA | 0.52
GUUAACGGUCACAGGCCAUGGAAACUAGGUGCACCAUUUCGCUGCCAGUGAAGAAAUGAACAAAGGAAAUCUGGGCCAGGCAGGCACAAAAAGAAAUAGUCUUGCGCUCAACCAGAAAGUCUGUAAUCAUUUUAAGGGUA | 0.94
GUUAACGGUCACAGGCCAUGGAAACUAGGAGCACCAUUUCGCUGCCAGUGAAGAAAUGAACAAAGAAAAUCUGGGCCAGGCAGGCAUCAAAAGAGAUAGUCUUGCGCGCAACCAGAAAGUCUGUAAUCAUUUUAAGGGUA | 0.03
GUUAACGGUCACAGGCCAUGGAAACUAGGAGCACCAUUUCGCUGCCAGUGAAGAAAUGAACAAAGUAAAUCUGGGCCAGGCAGGCGUCAAAAGAAAUAGUCUUGCGCUCAACCAGAAAGUCUGUAAUCAUUUCAAGGGUA | 1.06
GUUAACGGUCACAGGCCAUGGAAACUAGGAGCACCAUUUCGCUGCCAGUGAAGAAAUGAACAAAGAAAGUCUGGGCCAGGCAGGCAUCAAAAGAAAUAGUCUUGCGCUCAACCAGAAAGUCUGUAAUCAUUCUAAGGGUA | 0.33
GUUAACGGUCACAGGCCAUGGAAACUAGGAGCACCAUUUCGCUGCCGGUGAAGGAAUGAACAAAGAAAAUCUGGGCCAGGCAGGCAUCAAAAGAAAUAGUCUUGCGCUCAACCAGAAAGUCUGUGAUCAUUUUAUGGGUA | 0.09
GUUAACGGUCACAGGCCAUGGAAACUAGGAGCACCAUUUCGCUGCCAGUGAAGAAAUGAACAAAGAAAGUCUGGGCCAGGCAGGCAUCAAAAGAAAUAAUCUUGCGCUCAACCAGAAAGUCUGUAAUCAUUUUAAGGGUA | 0.73
GUUAACGGUCACAGGCCAUGGAAACUAGGAGCACCAUUUCGCUGCCGGUGAAGAAAUGAGCAAAGAAAAUCUGGGCCAGGCAGGCAUCAAAAGAAAUAGUCUUGCGCCCAACCAGAAAGUCUGUAUUCAUUUUAAGGGUA | 0.07
GUUAACGGUCACAGGCCAUGGAAACUAGGAGCACCUUUUCGCUGCCAGUGAAGAAAUGAACAAAGAAGAUCUGGGCCAGGCAGGCAUCAAAAGAAAUAGUCUUGCGCUCAACCAGAAAGUCUGUAAUCAUUUUAAGGGUA | 1.18
GUUAACGGUCACAGGCCAUGGAAACUAGGAGCACCAUUUCGCUGCCAGUGAAGUAAUGAACAAAGAAAACCUGGGCCAGGCAGGCAUCAAAAGAAAUAGUCUUGCGCUCAACCGGAAAGUCUGUAAUCAUUUUAAGGGUA | 0.09
GUUAACGGUCACAGGCCAUGGAAACUUGGAGCACCAUCUCGCUGCCAGUGUAGAAAUGAACAAAGAAAAUCUGGGCCAGGCAGGCAUCAAAAGAAAUAGUCUUGCGCUCAACCAGAAAGUCUGUAAUCAUUUUAAGGGUA | 1.81
GUUAACGGUCACAGGCCAUGGAAACUAGGAGCACCAUUUCGCUGCCAGUGGAGAAAUGAACAAGGAAAAUCUGGGCCAGGCAGGCGUCAAAAGAGAUAGUCUUGCGCUCAACCAGAAGGUCUGUAAUCAUUUUAAGGGUA | 0.57
GUUAACGGUCACAGGCCAUGGAAACUAGGAGCACCAUUUCGCUGCCAGUGAAGAAAUGAACAGCGAAAAUCUGGGCCAGGCAGGCAUCAAAAGAAAUAGUCUUGCGCUCAACCAGAAAGUCUGUAAUCAUUUUAAGGGUA | 1.41
GUUAACGGUCACAGGCCAUGGAAACUAGGAGCACCAUUUCGCUGCCGGUGAAGAAAUGAACAAAGAAAAUCUGGGCCUGGCAGGCAUCAAAGGAAAUAGUCUUGCGCUCAACCAGAAAGUCUGUAAUCAUUUUAAGGGUA | 0.4
GUUAACGGUCACAGGCCAUGGAAACUAGGAGCACCAUUUCGCUGCCAGUGAAGAAAUGAACAAAGAAAAUCUGGGCCAGGCAGGCGUCAAAAGAAAUAGCCUUGCGCUCAACCAGAAAGUCUGUAAUCAUUUUAAGGGUA | 1.92
GUUAACGGUCACAGGCCAUGGAAACUAGGAGCACCAUUUCGCUGCCAGUGAAGAAAUGAGCAAAGAAAAUCUGGGCCAGGCAGGCACCAAAAGAAAUAGUCUUGCGCUCAACCAGAAAGUCUGUAAUCAUUUUAAGGGUA | 0.96

Variant | self-cleavage
GUUAACGGUCACAGGCCAUGGAAACUAGGAGCACCAUUUCGCUGCCAGUGAAGAAAUGAACAAAGAAAAUCUGGGCCCGGCAGGCAUCAAAAGAAACAGUCUUGCGCUCAACCGGAAAGUCUGUAAUCAUUCUAAGGGUA | 0.01
GUUAACGGUCACAGGCCAUGGAAACUAGGAGCACCAUUUCGCUGCCAGUGAAGAAAUGAACCAAGAAAAUCUGGGCCAGGCGGGCAUCAAAAGGAAUAGUCUUGCGCUCAACCAGAAAGUCUGUAAUCAUUUUAGGGGUA | 0.86
GUUAACGGUCACAGGCCAUGGAAACUAGGAGCACCAUUUCGCUGCCAGUGAAGAAAUGGACAAAGAAAAUCUGGGCCAGGCAGGGAUCAAAAGAAAUAGUCUUGCGCUCAACCAGAAAGUCUGUAAUCAUUUUAGGGGUA | 0.43
GUUAACGGUCACAGGCCAUGGAAACUAGGAGCACCAUUUCGCUGCCAGUGAGGAAAUGAACAAAGAAAAUCUGGGCCAGGCAGGCAUCAAAAGAAAAAGUCUUGCGCUCAACCAGAAAGUCUGUAAUCAUUUUAAGGGUA | 0.86
GUUAACGGUCACAGGCCAUGGAAACUAGGAGCACCAUUUCGCUGCCAGUGAGGAAGUGAACAAAGAAAAUCUGGGCCAGGCAGGCAUCAAAAGAAAUAGUCUUGCGCUCAACCAGAAAGUUUGUAAUCAUUUUAAGGGUA | 1.22
GUUAACGGUCACAGGCCAUGGAAACUAGGAGCACCAUUUCGCUGCCAGUGAAGAAAUGAACAAAGAAAAUCUGGGCCAGGCAGGCAUCAAAAGGAGUAGUCUUGCGCUCAACCAGGAAGUCUGUAAUCAUUUUUAGGGUA | 0.89
GUUAACGGUCACAGGCCAUGGAAACUAGGAGCACCAUUUCGCUGCCAGUGAAGAAAUGAGCAAAGAAAACCUGGGCCAGGCAGGCAUCAAAAGAAAUAGUCUCGCGCUCAACCAGAAAGUCUGUAAUCAUUUUAAGGGUA | 0.11
GUUAACGGUCACAGGCCAUGGAAACUAGGAGCCCCAUUUCGCUGCCAGCGAAGAAAUGAACAAAGAAAAUCUGGGCCAGGCAGGCAUCAAAAGAAAUAGUCUUGCUCUCAACCAGAAAGUCUGUAAUCAUUUUAAGGGUA | 0.02
GUUAACGGUCACAGGCCAUGGAAACUAGGAGCACCAUUUCGCUGCCAGUGAGGAAAUGAACAAAGAAAAUCUGGGCCAGGCAGGCAUCAAAAGAAAUAGUCUUGCGCUCAACCAGAGAGUCUGUAAUCAUUUUAAGGGUA | 1.9
GUUAACGGUCACAGGCCAUGGAAACUAGGAGCACCAUUUCGCUGCCAGUGAAGAAAUGAACAAAGAAAAUCUGGGCCAGGCAGGCAUCUAAAGAAAUAGUCUUGCGCUCAGCCAGAACGUCUGUAAUCAUUUUAAGGGUA | 0
GUUAACGGUCACAGGCCAUGGAAACUAGGAGCACCAUUUCGCUGCCAGUGAGGAAAUGAACGAAGAAAAUCUGGGCCAGGCAUGCAUCAAAAGAAAUAGUCUUGCGCUCAACCAGAAAGUCUGUAAUCAUUUUAAGGGUA | 0.54
GUUAACGGUCACAGGCCAUGGAAACUAGGAGCACCAUUUCGCUGCCAGUGAAGAAAUGAGCAAAGAAAAUCUGGGCCAGGCAGGCAUCAAAAGAAAUAGUCUUGCGCUCAACCAGAAAGUCUGUAGUCAUUUUAAGGGUA | 1.16
GUUAACGGUCACAGGCCAUGGAAACUAGGAGCACCAUUUCGCUGCCAGUGAAGAGAUGAACAAAGAAAAUCUGGGCCAGGCAGGCACCAAAAGAAAUAGUCUUGCGCUCAACCAGAAAGUCUGUAAUCAUUUUAAGGGUA | 0.88
GUUAACGGUCACAGGCCAUGGAAACUAGGAGCACCGUUUCGCCGCCAGUGAAGAAAUGAACAAAGAAAAUCUGGGCCAGGCGGGCAUCAAAAGAUAUAGUCUUGCGCUCAACCAGAAAGUCUGUAAUCAUUUUAAGGGUA | 0.24
GUUAACGGUCACAGGCCAUGGAAACUAGGAGCACCAUUUCGCUGCCAGUGAAGAAAUGAACAAAGAGAAUCUGGGCCAGGCAGGCAUCAAGAGAAAUAGUCUUGCGCUCAACCAGAAAGUCUGUAAUCAUUUUAAGGGUA | 0.69
GUUAACGGUCACAGGCCAUGGAAACUAGGAGCACCAUUUCGCUGCCAGUGAAGAAAUGAACAAAGAAAGUCUGGGCCAGGCAGGCAUCAAGAGAAAAAGUCUUGCGCUCAGCCAGAAAGUCUGUAAUCAUUUUAAGGGUA | 0.02
GUUAACGGUCACAGGCCAUGGAAACUAGGAGCGCCAUUUCGCUGCCAGUGAAGAAAUGAACAAAGAAAAUUUGGGCCAGGCAGGCAUCAAAAGAAAUAGUCUUGCGCUCAACCAGAAAGUCUGUAAUCAUUCUAAGGGUA | 0.04
GUUAACGGUCACAGGCCAUGGAAACUAGGAGCACCAUUUCGCUGCCAGUGAAGAAAUGAACAAAGAAAGUCUGGGCCAGGCGGGCAUCAAAAGAAAUAGUCUUGCGCUCAACCAGAAAGUCUGUAAACAUUUUAAGGGUA | 0.63
GUUAACGGUCACAGGCCAUGGAAACUAGGAGCACCAUUUCGCUGCCAGUGAAGAAAUGAACAAAGUAAAUCUGGGCCAGGCAGGCAUUGAAAGAAAUAGUCUUGCGCUCAACCAGAAAGUCUGUAAUCAUUUUAAGGGUA | 1.18
GUUAACGGUCACAGGCCAUGGAAACUAGGAGCACCAUUUCGCUGCCAGUGAAGAAAUGAGCAAAGAAAAUCUGGGCCAGGCAGGCAUCAAAAGAAGUAGUCUCGCGCUCAACCAGAAAGUCUGUAAUCAUUUUAAGGGUA | 0.55
